Test results as given in US20240376128A1, “N-CYCLOPROPYLPYRIDO [4, 3-D] PYRIMIDIN-4-AMINE DERIVATIVES AND USES THEREOF” (Jacobio Pharmaceuticals Co., Ltd., priority 2021, published 2024).

Experiments:
[1] = tested on: K-Ras mutant and K-Ras WT cell lines indicated in Table 20; assay: 2D cell growth inhibition assay (CellTiter-Glo, 6 days); format: cell-based
Description: Each of cells in culture medium was plated in TC-treated 96-well plates at a density indicated in Table 20 and incubated in a cell incubator overnight.

[2] = tested on: K-Ras mutant and K-Ras WT cell lines indicated in Table 20; assay: 3D cell growth inhibition assay (CellTiter-Glo 3D, 6 days); format: cell-based; details: Homo sapiens, 144 h
[3] = Mouse pharmacokinetic study; format: in vivo; details: female, Balb/c mouse, single dose 10 mg/kg, po, plasma
Description: The purpose of this study was to evaluate the pharmacokinetic properties of compounds in Balb/c mouse (♀) following single dose administration. Six mice were needed for each compound and the six mice were divided into two groups (n=3/group), group A and group B. Mice in group A were treated with a single 3 mg/kg dose of compound (iv). Mice in group B were treated with a single 10 mg/kg dose of compound (po). For each mouse in group A, blood samples were collected at the time point of 0.083, 0.5, 1, 2, 4 and 8 h post-dose. For each mouse in group B, blood samples were collected at the time point of 0.5, 1, 2, 4, 6 and 8 h post-dose. Blood samples were placed on ice until centrifugation to obtain plasma samples. The plasma samples were stored at −80° C. until analysis. The concentration of compound in plasma samples was determined using a LC-MS/MS method.
For the prodrug, only the oral PK study was performed and the dosage was adjusted to be equal to 10 mg/kg of parent drug. The concentrations of both prodrug and parent drug in plasma were determined using a LC-MS/MS method.

Question: Which IC50 ([1]; 144 h, AGS (K-Ras G12D), absolute IC50, read-out: Cell Growth Inhibition, IC50, AGS) does the source give for `[2H]C([2H])([2H])N(c1nc(OC[C@@]23CCCN2C[C@H](F)C3)nc2c(F)c(-c3cc(O)cc4ccc(F)c(C#C)c34)ncc12)C1CC1` [Compound 4, 4-(4-(cyclopropyl(methyl-d3)amino)-8-fluoro-2-(((2R,7aS)-2-fluorotetrahydro-1H-pyrrolizin-7a(5H)-yl)methoxy)pyrido[4,3-d]pyrimidin-7-yl)-5-ethynyl-6-fluoronaphthalen-2-ol] here?
Answer: 41.4 nM

Question: What about the IC50 ([1]; Homo sapiens, ASPC1, 144 h, AsPC-1 (K-Ras G12D), absolute IC50, read-out: Cell Growth Inhibition, IC50, AsPC-1) of the same compound?
Answer: 772 nM

Question: And the IC50 ([1]; Homo sapiens, SW-620, 144 h, SW620 (K-Ras G12V), absolute IC50, read-out: Cell Growth Inhibition, IC50, SW620)?
Answer: 22.7 nM

Question: And the IC50 ([2]; MKN-1 (K-Ras WT), absolute IC50, read-out: Cell Growth Inhibition, IC50, MKN-1)?
Answer: 95.3 nM

Question: And the IC50 ([2]; NCI-H460 (K-Ras Q61H), absolute IC50, read-out: Cell Growth Inhibition, IC50, NCI-H460)?
Answer: 508 nM

Question: What about the AUC(0-t) ([3]; read-out: AUC0-8h) of the same compound?
Answer: 5640 ng·h/mL

Question: What about the Cmax ([3]; read-out: Cmax) of the same compound?
Answer: 1950 ng/mL
